PubChem BioAssay (NCATS)
This list was built around the results that the source calls inconclusive (neither active nor inactive); the mix of calls is not that of the screen. Potencies beside an inconclusive call are fits to weak or partial responses and may not hold up. Activity calls are given as the source filed them. Calls follow the shape of the dose curve; as a rule, active = well fitted activation curve with a large enough effect; inconclusive = small, poorly fitted or top-dose-only effect; inactive = no such curve, though single readings can be large or run the other way.

Molecular target: Cellular tumor antigen p53 (Homo sapiens) (UniProt P04637)
Sequence of UniProt P04637 (P04637 whole entry, looked up): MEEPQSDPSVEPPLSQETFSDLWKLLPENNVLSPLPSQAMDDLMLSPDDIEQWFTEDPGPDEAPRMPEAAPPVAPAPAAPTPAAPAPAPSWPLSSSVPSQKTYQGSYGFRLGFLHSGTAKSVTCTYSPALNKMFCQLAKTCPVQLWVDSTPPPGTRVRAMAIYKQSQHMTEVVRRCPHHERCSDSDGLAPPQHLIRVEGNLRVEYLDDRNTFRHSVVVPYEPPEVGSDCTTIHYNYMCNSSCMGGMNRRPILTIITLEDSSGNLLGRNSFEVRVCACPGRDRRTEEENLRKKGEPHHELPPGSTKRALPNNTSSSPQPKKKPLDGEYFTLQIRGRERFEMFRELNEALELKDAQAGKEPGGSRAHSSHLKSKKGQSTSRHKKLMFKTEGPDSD
Assay: Primary qHTS for small molecule compounds that upregulate eGFP-tagged delta133p53alpha (in N-terminal) cells. (AID 2060322);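 also: cells pre-induced with doxycycline then dosed without doxycycline; nearly all actives have a fitted effect of over 75% in size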;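 as to activation: series mostly up to about 56 µM; 0% = DMSO vehicle and 100% = reference activator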
Conditions: NCI-H358 eGFP-delta133p53alpha fluorescence, 24 h; activation: active compounds read high
In short: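 NCI-H358 cells pre-induced 24 h with 10 ng/ml doxycycline for eGFP-delta133p53alpha, plated dox-free and exposed 24 h at 37C to titrated compounds. Fixed, Hoechst-stained; gated GFP peak intensity by laser scanning cytometry, normalized to DMSO (0%) and 57.5 uM 5-azacytidine (100%).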
Potency is read from the fitted curve at half-maximal effect; tags tell the direction and shape of the fitted curve.

Structure (SMILES) | Potency | activation
CO[C@@H]1[C@@H](OC)[C@H](C)[C@@](O)(CC(=O)O)O[C@H]1[C@H](C)[C@H]1O[C@@]2(CC[C@@](C)([C@H]3CC[C@@](C)([C@@H]4O[C@@H]([C@H]5O[C@](C)(O)[C@H](C)C[C@@H]5C)C[C@@H]4OC4C[C@H](OC)[C@@H](OC)[C@H](C)O4)O3)O2)C[C@H](O)[C@H]1C (some centres undefined) | active: 8.71 µM | –
O=C(O)CNC(=O)c1ccccc1I | inconclusive: 9.78 µM [activator, partial curve] | –
CCC(CC)C(=O)OC12C(OC(=O)C(C)C)C(C)C3(O)C(C=C(CO)CC4(O)C(=O)C(C)=CC43)C1C2(C)C (centres undefined) | inconclusive: 18.5 µM [activator, single point] | –
O=C1OC(=O)C2C3CCC(O3)C12 (centres undefined) | inconclusive: 23.9 µM [activator, single point] | –
Cc1c[nH]c(C=C2C(=O)Nc3ccccc32)c1CCC(=O)O | active: 24.3 µM | –
CCc1cnn2c(NCc3ccc[n+]([O-])c3)cc(N3CCCC[C@@H]3CCO)nc12 | active: 0.0685 µM | –
CON=C(C(=O)N[C@@H]1C(=O)N2C(C(=O)OCOC(=O)C(C)(C)C)=C(C=Cc3scnc3C)CS[C@H]12)c1csc(N)n1 | – | inactive: -6.48%
COc1c2c(c(C)c3c1C(=O)OC3)OC1(C)CC(O)C3(O)C(C)(C)OC(=O)CCC3(C)C1C2 (centres undefined) | inconclusive: 0.928 µM [activator, partial curve, poor fit] | –
O=C1c2c(O[C@@H]3O[C@H](CO)[C@@H](O)[C@H](O)[C@H]3O)cc(O)cc2OC1(O)Cc1ccc(O)cc1 (some centres undefined) | active: 10.4 µM | –
